Experimental data: PubChem BioAssay AID760 (NMMLSC, 2007)
The campaign covered roughly 190,000 compounds. About 360 (0.19%) were called active. Inconclusive means that the source gave no clear call. Such entries were picked first, then a sample of the others.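 How the source made its calls: active means GTP binding activity at least 20 points away from 100%, either lowered or raised; inconclusive means signal likely due to the compound's own green fluorescence; inactive means the rest.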

Molecular target: Ras-related protein Rab-2A (Canis lupus familiaris) (UniProt P61105)
Assay: Rab2 wt fluorescent GTP binding changes, either direction – biochemical, dog, bead-based flow cytometry, multiplex, primary screen (AID 760);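 further: 0% = beads with excess unlabeled GTP and 100% = no-compound control corrected for plate trend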
Conditions: GST-Rab2 wt beads, Bodipy-GTP binding, at 10 µM

Compound	GTP binding activity
N#CC1=C(N)C(C#N)(C#N)C(c2cccnc2)C2CCCC=C12 (stereo unspecified)	inconclusive: 88%
CCOc1ccc(C2C(C(=O)/C=C/c3ccco3)=C(O)C(=O)N2CCN2CCOCC2)cc1OC (stereo unspecified)	inactive: 99%
Cc1cc(C)nc(N/N=C2/CCCC/C2=C\c2ccccc2)n1	inactive: 93%
N#CC(C#N)=C1C=CC=CN1/C(=C\c1ccccc1)C(=O)c1cccs1	inactive: 95%
CCn1cnc2sc(-c3ccccc3)cc2c1=O	inconclusive: 104%
CC(C)NC(=O)C(=O)NCCN1CCN(C(=O)c2ccc(C(C)(C)C)cc2)CC1	inconclusive: 97%
CCNc1nc(SC)nc(N(C#N)CC(=O)OC)n1	inconclusive: 102%
CCCCOc1ccc(/C(N)=N/O)cc1	inactive: 102%
CC(C)c1nc(NCCO)c2nnn(Cc3ccccc3)c2n1	inactive: 102%
NS(=O)(=O)c1ccc(Nc2nc(-c3ccc(F)cc3)cs2)cc1	inactive: 95%
Cn1cc(-c2nnnn2-c2ccccc2)c(=O)c2ccccc21	inconclusive: 96%
COc1ccc(OC)c(-c2csc(NC(=O)C3=NNC(=O)CC3)n2)c1	inactive: 96%
Cc1nc(N2CCOCC2)nc(OCCN2CCOCC2)c1[N+](=O)[O-]	inactive: 97%
CCOc1cc(CNCc2ccncc2)cc(Cl)c1OC	inconclusive: 104%
Cc1nnc2ccc(-c3cccc(NC(=O)c4ccc(Cl)nc4)c3)nn12	inactive: 91%
CN1CCN(C(=O)/C=C/c2cn(-c3ccccc3)nc2-c2ccc3c(c2)OCCO3)CC1	inconclusive: 104%
O=C(CC(NCc1ccccn1)C(=O)O)Nc1ccccc1Cl (stereo unspecified)	inconclusive: 94%
CN(C)c1ccc(CN(C(=O)COc2ccc(Br)cc2)C2CCS(=O)(=O)C2)cc1 (stereo unspecified)	inconclusive: 93%
CCn1c(SCC(=O)Nc2oc(-c3ccccc3)c(-c3ccccc3)c2C#N)nnc1-c1cc(OC)cc(OC)c1	inconclusive: 89%
Nc1[nH]n2c(=O)cc(-c3ccccc3)nc2c1N=Nc1ccc2c(c1)OCO2	inactive: 88%
O=C(NNC(=O)C1CCN(c2ncccn2)CC1)c1ccccc1	inconclusive: 96%

Compound	GTP binding activity
Cc1ccc(CNC(=O)c2ccc3nc4[nH]c5ccccc5c4nc3c2)cc1	inconclusive: 93%
CCOc1cccc(Nc2cc3n(c(=O)n2)CCc2cc(OC)c(OC)cc2-3)c1	inactive: 84%
CNC(=O)c1cc2ccccc2o1	inconclusive: 100%
COc1ccc(S(=O)(=O)NCC2CCCN(Cc3ccccc3C)C2)cc1 (stereo unspecified)	inactive: 100%
CCC(C)(NC(=O)c1ccccn1)C(=O)NC1CCCC1 (stereo unspecified)	inactive: 103%
CC(C)NC(=O)COc1ccc(/C=N/NS(=O)(=O)c2ccccc2)cc1	inconclusive: 91%
O=C(CCn1c(=O)oc2ccccc21)N(Cc1ccccc1)c1ccccc1	inactive: 99%
Cc1ccccc1C(=O)NNC(=O)c1cc(N)cc([N+](=O)[O-])c1	inactive: 97%
Clc1ccc(/C=N/Nc2nc(Cl)nc3ccccc23)cc1	inconclusive: 92%
c1ccc(N2CCN(c3cnccn3)CC2)nc1	inconclusive: 103%
O=C1CC(c2ccccc2)Sc2ccccc2N1 (stereo unspecified)	inconclusive: 104%
Cc1ccc(CNC(=O)C2CCN(S(=O)(=O)c3c(C)noc3C)CC2)cc1	inconclusive: 103%
Cc1cc(=O)n2c3ccccc3n(CC(O)CN3CCCC3)c2c1C#N (stereo unspecified)	inconclusive: 100%
COc1ccc(-c2nnc(CSc3nc4ccccc4c(=O)n3C)o2)cc1OC	inactive: 106%
COc1cccc(NC(=O)NCCCN2CCN(c3ccc(F)cc3)CC2)c1	inactive: 98%
CS(=O)(=O)N1CCc2cc(C(=O)OCC(=O)c3ccccc3)ccc21	inactive: 94%
COc1cc(/C=N/NC(=O)c2sc(N)c(C#N)c2C)ccc1O	inactive: 90%
CSc1ccc(CNCCN2CCOCC2)cc1	inactive: 96%
COc1ccc(-n2c(SCC(=O)N3CCCC(C)C3)nnc2-c2cccnc2)cc1 (stereo unspecified)	inconclusive: 95%
CCCCN(Cc1ccccc1)C(=O)C1CCCN(S(=O)(=O)c2cnc[nH]2)C1 (stereo unspecified)	inactive: 100%
Cc1ccc(NC(=O)c2ccccc2)cc1	inconclusive: 105%

Compound	GTP binding activity
CCOC(=O)Cc1nn[nH]n1	inactive: 97%
CCN(Cc1ccccc1)c1ccc(/C=N/NS(=O)(=O)c2cccc([N+](=O)[O-])c2)cc1	inactive: 103%
CC(=O)c1c(C)[nH]c(C(=O)OCC(=O)Nc2ccccc2Cl)c1C	inconclusive: 96%
COc1ccc(OC)c(NC2=NC3(CCCC3)N=C(N)N2)c1	inconclusive: 88%
CCCCCCC(=O)NN1CCN(C)CC1	inconclusive: 104%
O=S1(=O)N=C(N(CCO)/N=C/c2ccccc2)c2ccccc21	active: 70%
Cc1nnc(NC(=O)CSc2ccc3nnc(-c4ccccn4)n3n2)s1	inactive: 93%
Cc1ccc(CCN=c2c([N+](=O)[O-])nn(-c3ccccc3)n2O)cc1	inconclusive: 88%
O=C(COc1ccccc1)Nc1ccc(-c2nnc(-c3ccco3)o2)cc1	inconclusive: 92%
NS(=O)(=O)c1ccc(N/C=C\C(=O)c2cccc3ccccc23)cc1	inconclusive: 101%
COc1ccc(CC2(CO)CCN(S(=O)(=O)c3sccc3C)CC2)cc1	active: 66%
CCN(c1ccccc1)S(=O)(=O)c1ccc2[nH]c(=O)[nH]c2c1	inactive: 99%
COc1ccc(/C=N/Nc2nc(-c3cccc(S(=O)(=O)N4CCCC4)c3)cs2)cc1OC	inconclusive: 93%
CCOC(=O)Cn1c(=O)c2c(nc3n2CCN3Cc2ccccc2)n(C)c1=O	inactive: 99%
Cc1ccc(NCC(=O)N/N=C/c2c[nH]c3ccccc23)cc1	inconclusive: 94%
CCCCCn1c(NC(=O)c2ccco2)c(S(=O)(=O)c2ccc(C)cc2)c2nc3ccccc3nc21	inconclusive: 87%
Cc1nc(N/N=C/c2ccc(O)cc2)c2cnn(-c3ccccc3)c2n1	inconclusive: 75%
CC(C)(C)NC(=O)CSc1nccn1Cc1ccccc1	inactive: 85%
O=C(Nc1nc(-c2cccs2)cs1)c1ccco1	inconclusive: 89%
